# Source: paper PMC10668032
# This is one part of the list. At the low end of the ranking the order means little.
# Target: SIX1-Q177R homeodomain (UniProt Q15475)
# Test: universal protein binding microarray
# Conditions: Universal all-10-mer PBM (8x60K, AMADID 030236), 300 nM GST-tagged protein, Alexa Fluor 488 anti-GST; buffer, salt, pH and temperature not stated; high values mean tight binding; most listed sequences are background and not binding sites; double strand, one strand shown
row,Sequence,binding signal [E-score]
1,AGCGCAGG,-0.114
2,ATGAGGGG,0.195
3,GAATGGTA,0.0944
4,GCTGGCCC,-0.264
5,ACCATTCT,0.0566
6,GACCCATA,-0.0706
7,AAAGGAGG,-0.208
8,AAGAAATA,-0.177
9,CTTTCAGA,0.0106
10,AGTGAAAA,-0.121
11,GTGAACCA,0.0698
12,ACAGGGGT,0.266
13,AGTTGTTC,-0.0319
14,AACAAAAT,-0.283
15,GAAGTCCC,-0.283
16,CTAGAGCA,-0.0979
17,CTCCGGGC,-0.135
18,AGGATCTG,-0.0171
19,ACTGATGA,-0.104
20,ATCCGCCG,0.131
21,GACGAGGA,-0.205
22,GGAGGCCA,-0.217
23,CGTCGCAG,-0.129
24,CCAACTCG,0.0547
25,CCATTTCG,-0.22

row,Sequence,binding signal [E-score]
1,CCTGGTAC,-0.0455
2,CCTCTCTA,-0.0673
3,TCATAGCA,-0.159
4,CATATCGC,-0.0732
5,AGTGGCAA,-0.199
6,TATATACA,0.143
7,ACGATAAA,-0.0977
8,TAGTTCGA,-0.0736
9,GTATTAAC,0.0594
10,CACAAGCC,0.0532
11,AAACCGTG,0.134
12,CCATATTA,0.0121
13,ATAGCCTG,-0.087
14,CACGCGCA,0.212
15,ACCTTACG,-0.0798
16,CGCATCTA,-0.0442
17,TAAAGTGA,-0.152
18,GCTCAGCA,-0.108
19,CTCGGACC,-0.0615
20,AGAACTTA,-0.0842
21,AATACAGT,-0.137
22,ATTTACTA,-0.0242
23,AGTTGTTA,-0.132
24,AAGACTAG,-0.221
25,CGATAAAA,-0.223

row,Sequence,binding signal [E-score]
1,AGCGGCAT,-0.11
2,TGAAATCA,-0.211
3,CTAGAGAC,-0.136
4,CAGCTGTA,-0.304
5,AATGCACA,0.0289
6,ACTCTGTC,-0.0918
7,GCGGCCCA,-0.057
8,ATGACCCG,0.2
9,AATTTTAT,-0.264
10,AGAATATC,-0.16
11,AGAGAGGA,-0.0901
12,CAGACTGA,-0.25
13,TCGAGTAA,0.0637
14,CCGAGACG,0.0137
15,TGAATAAA,-0.0868
16,GGCAGAAA,-0.149
17,ATGGATCC,0.133
18,CATTAGAC,-0.0185
19,CCCACAAA,-0.0323
20,TACATATA,-0.128
21,TCATTTAA,-0.129
22,CTCAAAAC,0.0312
23,AAATCAAG,-0.146
24,GGCCACCC,-0.111
25,ATACGTCG,-0.145

row,Sequence,binding signal [E-score]
1,CATGCAGC,-0.242
2,CAAATGAC,-0.0786
3,AAAGCCGC,-0.288
4,GCTAGGAA,-0.199
5,GTCGCTGA,-0.126
6,CGACGAAG,-0.0896
7,AATGACTC,0.245
8,AGACGCTA,-0.234
9,CAAAGTCC,-0.0737
10,AAGCGCCC,-0.192
11,ATGTCTTA,-0.123
12,AGCGATTG,-0.221
13,AGACCTTA,0.0211
14,AGGGGGCC,-0.189
15,CAGGAATC,0.0764
16,AAAGGACG,-0.0117
17,GCAGGTTA,0.125
18,ACATTTAC,-0.0498
19,GCCGAACA,0.116
20,AACCCTGC,0.0585
21,GAACCCAC,0.19
22,GAGCCGAC,-0.0478
23,AACCGAGC,-0.134
24,AGGAGTTG,0.0312
25,CCGCTTGC,-0.122

row,Sequence,binding signal [E-score]
1,ACATGTTA,-0.0791
2,CGGGTCCC,-0.00739
3,AAGCTACT,-0.122
4,CACTGGGG,0.287
5,CATAACAA,-0.0397
6,CACACAGC,0.127
7,GATGGACA,0.0581
8,CACAAAGC,0.0208
9,GAGTATGC,0.0527
10,GAGCTAAA,-0.217
11,ATCCACCC,0.208
12,AAGCAGTA,-0.301
13,CAACTTAG,0.123
14,AGGGTGAT,0.037
15,TGTACAAA,0.112
16,CATGCTCG,-0.102
17,TAATACAA,0.00681
18,AATTTGAT,-0.178
19,ATACCCAA,0.153
20,AGAGAGGG,-0.0457
21,AGGAACTC,-0.279
22,CTTCGGAC,-0.00526
23,GCCGCTCA,-0.146
24,AAACGGTC,-0.276
25,AGATACTC,0.13

row,Sequence,binding signal [E-score]
1,AGTCATAT,0.0539
2,ATAGGGGA,-0.059
3,AATTTTAC,-0.0032
4,GCTGCCAC,-0.0573
5,GCCACTTA,-0.128
6,AGTAGGTC,-0.062
7,ATGAGTCG,0.0171
8,ATAGCATA,-0.047
9,CAGACTAG,-0.19
10,GAGAAAGA,-0.202
11,TCGGCTCA,-0.213
12,CGACAGAG,-0.218
13,CTGGGTCC,0.00942
14,GACTACCA,-0.0732
15,AATCTCAT,-0.165
16,CACGCCTG,0.202
17,TCCTCTAA,-0.0751
18,CCGTAGAG,-0.108
19,CCCCGTGC,0.244
20,CTCTCCCC,-0.0887
21,AGGTCTAT,-0.171
22,ACCTCGTA,0.0135
23,ACTTTCTG,-0.0154
24,ATAGGTCA,-0.0545
25,CCCCTGGC,0.129

row,Sequence,binding signal [E-score]
1,CTTGCAGA,-0.0336
2,CCGGAGCC,0.0922
3,CAGGATAA,0.0465
4,CGTAAACG,0.0318
5,TCCCGGGA,0.05
6,AAACTTCA,-0.133
7,GAAATTAC,-0.193
8,CGTCGGTA,-0.132
9,AAGATACG,-0.109
10,GGAAGTTA,-0.105
11,GGCAACCA,-0.0707
12,AAGGTCGC,-0.12
13,AGTAAATG,-0.115
14,ATCGGCTC,-0.0341
15,AGATCCAA,-0.136
16,AAAACTTT,0.0384
17,GTTTATGA,-0.235
18,GAAGGGGC,0.0249
19,AGAATTTC,-0.193
20,TAGAGCAA,-0.256
21,ATACAAAT,-0.0329
22,ATTGAACA,0.0215
23,CCGCAGCC,0.0121
24,CGATGTGC,-0.15
25,CGGGCAAA,-0.0934

row,Sequence,binding signal [E-score]
1,GGGCAATA,-0.108
2,GCTTGGGA,-0.0871
3,CAGGCTAG,-0.0295
4,AACTCGGT,0.0864
5,CCCAGTGA,-0.0336
6,AATTCCGA,-0.00637
7,AACTTATT,-0.116
8,AAGGTGAG,-0.118
9,ATCTAGCG,0.00805
10,CTAAATAG,-0.0533
11,CCGTAGCC,-0.0577
12,CCCCCGTC,0.112
13,AACCATAA,-0.118
14,AGTACGAA,-0.168
15,ATGTGGGA,-0.104
16,AGCGTAGA,-0.024
17,TGCAGACA,0.167
18,TCCTTAAA,-0.0969
19,CCTAAGTC,-0.147
20,CAACAGTC,-0.29
21,GCTATAAA,-0.197
22,AAGTTCCC,-0.214
23,CTCGGTTA,-0.161
24,CCTACGGA,-0.24
25,GTGCGATA,0.119

row,Sequence,binding signal [E-score]
1,CCTGCGAG,0.00291
2,CTAATTCA,-0.261
3,GGTTGTGA,-0.0383
4,AATAAAGG,-0.271
5,AGGCTCCA,-0.24
6,AAGATAAA,-0.121
7,AAAATTAT,-0.109
8,CCACTTGC,0.163
9,TAGAGATA,-0.125
10,CAGTTCCA,-0.0209
11,CAAATCCC,-0.117
12,GGCATTCA,-0.0852
13,ACCAAGAT,0.0978
14,CACCAGGA,0.25
15,AACCAGAC,-0.0596
16,ACCTGGCG,0.0885
17,CTATTAAC,0.196
18,GAGGCCCC,-0.234
19,AATGCGAT,-0.153
20,GTACTGGA,-0.00455
21,ACTACTAC,0.0499
22,AAGTACAA,-0.224
23,CTCGGGAC,-0.112
24,CATACTCC,0.212
25,GCTCCCCC,-0.0751

row,Sequence,binding signal [E-score]
1,AAACCATA,-0.00435
2,CAGACTGG,-0.112
3,TAACTTAA,-0.0624
4,TTAGGCAA,-0.241
5,AGCCACGA,-0.134
6,CTTCCTTC,-0.152
7,AATGTGCG,0.108
8,GCAAATCC,-0.161
9,TGCTAAAA,-0.00992
10,AGCTCTCC,-0.322
11,AGGGCCCA,-0.208
12,TAATTCCA,0.0335
13,AATTCCAA,-0.103
14,CATGTCCA,-0.138
15,ATGTAGGA,-0.163
16,AACGCCTT,-0.258
17,AGATACAA,-0.197
18,AGGGACAC,0.402
19,AGGAATTG,-0.0536
20,CTTACAGC,-0.163
21,AAAGTTCG,-0.0652
22,ATTCTAGA,-0.133
23,AATGTAAT,-0.201
24,ATGGTTAG,-0.11
25,CTTTAACC,-0.0731

row,Sequence,binding signal [E-score]
1,CCATATTC,-0.0645
2,CGCCTTAA,0.000255
3,TACTTCAA,-0.024
4,ACGAGTTA,0.205
5,ACAGGAGC,-0.182
6,ACTCCGTG,0.253
7,CATGCGGA,-0.0935
8,CCCCTCGG,0.126
9,AAGTGATG,-0.0838
10,CAGACAAA,-0.104
11,ATCTGACG,0.089
12,AAGCAATC,-0.0448
13,CTTCTCGA,-0.223
14,CGGTTGGC,0.0284
15,CCATCAAG,-0.0281
16,CCCCAACG,0.0793
17,AGGAGCAT,-0.134
18,CGGTTTAC,0.0979
19,GAGATCGC,-0.083
20,CTATGGAC,-0.0343
21,CCACACGA,0.234
22,CGGGATTA,0.051
23,GGATACCC,0.403
24,CGGATAAC,0.213
25,CTTCGCTC,-0.126

row,Sequence,binding signal [E-score]
1,CGAGCACC,0.224
2,ACAGTAAG,-0.0678
3,CGTACTTC,-0.0533
4,CATATGGG,-0.094
5,CAGGTTCG,-0.0744
6,GGGCAAAC,-0.161
7,AATGTACG,-0.108
8,CCAGTAAA,-0.0791
9,TTAAATAA,-0.0852
10,ACTGAGCC,-0.0884
11,CCGTTCGA,0.137
12,AGGATCGG,-0.0695
13,CCATATAG,0.0347
14,CGGAACCG,-0.13
15,ATAACCTA,-0.144
16,GAATTGGC,-0.166
17,AGGTATAA,0.17
18,GACAGACA,0.035
19,GAGTAACA,0.24
20,TCCAGAGA,-0.236
21,TCGTCGCA,-0.203
22,CCATGGAC,0.138
23,AACACTTG,0.336
24,AATCCTGG,-0.11
25,ACTGGTCT,-0.0434

row,Sequence,binding signal [E-score]
1,ATCTAAGG,-0.104
2,ATTAAAGC,-0.154
3,TAGGGTGA,0.0706
4,ATTATTTG,-0.136
5,CCCCTAGG,0.0554
6,CTGTAGCA,-0.203
7,ACGAGAAT,-0.168
8,ACGTGCCT,-0.14
9,AAAGTCTG,-0.378
10,CGATTCCC,0.00582
11,AATGTGGT,0.0523
12,GCCAAGAC,0.0011
13,CTGTGACA,0.21
14,ATGTATGA,0.0351
15,GGTGCGGA,0.0489
16,CTAGCACA,-0.0486
17,CCTACTTC,-0.106
18,TGTCTGAA,0.0965
19,TAGCCGCA,-0.0681
20,CACTCCAA,0.161
21,CTGGTGTC,0.483
22,GGCAAAAA,-0.224
23,ACTAGGGG,0.123
24,TCACTAGA,0.0337
25,CGGCCGAA,-0.181

row,Sequence,binding signal [E-score]
1,CAATCTGG,0.111
2,AGTGACTC,0.193
3,GTTAGCTA,-0.174
4,AAGTAAAG,-0.353
5,ACAACCCG,0.0997
6,ACACACCG,0.428
7,ATGTTTCC,-0.145
8,CGTGGCTC,-0.112
9,ATGTTCTG,-0.0718
10,ACGGCAAT,-0.178
11,ACATGTAC,0.0322
12,CTACGACC,0.0495
13,GCCATTTA,-0.0791
14,ATCTAAAT,-0.12
15,GAAAGAAC,-0.104
16,CACCCGAC,0.358
17,AACGTCGT,-0.225
18,AGCCAACC,0.0218
19,AGCAGCCG,-0.15
